From PubChem BioAssay AID1240 (Sanford-Burnham Center for Chemical Genomics, 2008) come the findings set out here.

SMILES strings stand for the structures. The whole screen tested about 50,000 compounds, of which about 800 (1.6%) showed an effect of 50% or more. This is one part of the list.

The target of the assay is Bcl-2-like protein 10 (Homo sapiens) (UniProt Q9HD36). In words: Phenotype converters, Bcl-B/TR3 peptide binding displacement, primary biochemical FP (AID 1240).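 Note: 0% = Bcl-B with tracer peptide and DMSO and 100% = tracer peptide lacking Bcl-B.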 The conditions noted are these: GST-Bcl-B / FITC-TR3 peptide fluorescence polarization; stronger effect = higher value; compound at 3.75 mg/L.
Sequence of UniProt Q9HD36 (Q9HD36 whole entry, looked up): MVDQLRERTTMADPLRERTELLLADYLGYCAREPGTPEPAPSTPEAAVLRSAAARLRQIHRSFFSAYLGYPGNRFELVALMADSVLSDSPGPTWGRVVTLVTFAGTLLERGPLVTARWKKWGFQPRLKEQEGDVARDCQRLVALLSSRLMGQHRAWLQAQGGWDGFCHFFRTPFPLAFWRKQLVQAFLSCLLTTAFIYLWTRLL
As for `O=C(Nc1ccc2ccccc2c1)/C(=C\c1ccc(Br)cc1)NC(=O)c1ccco1`, the displacement is 23.9%.
Then `COc1ccccc1C(=O)N1CCN(C2CCN(Cc3ccccc3)CC2)CC1`, with -10.8%; and `COc1ccc(S(=O)(=O)N(CCc2ccccc2)CC(=O)Nc2ccccc2F)cc1`, with 9.4%.
Then `O=C(NCC1(c2ccccc2)CCCC1)c1ccccc1`, with 5.1%.
Take `CCOC(=O)c1c(NC(=O)c2cc(OC)c(OC)c(OC)c2)sc(C(=O)Nc2ccccc2C(F)(F)F)c1C`: the displacement is -13.9%.
Regarding `COc1ccc(Cc2cnc(NC(=O)c3ccc([N+](=O)[O-])cc3)s2)cc1`, the displacement was 7.8%.
Take `O=C(O)c1ccc(N2CCC(c3ccccc3)=N2)cc1`: the displacement was -1.5%.
The result for `O=C1/C(=C/c2ccc3c(c2)OCO3)SC(=NCc2ccccc2)N1Cc1ccccc1` reads 11.4%; that for `CSc1nc(C)cc(-n2cc(Br)c(=O)[nH]c2=O)n1`, -4.2%; that for `COc1ccc(OCCCN2CCOCC2)cc1`, 5.5%.
As to `COC(=O)C1=NN(C(=O)c2ccc(Cl)cc2)C(O)(c2ccccc2)C1` (stereo unspecified), the displacement is -7.4%.
With `O=C(O)/C=C/c1cccc(NC(=O)CCc2ccccc2)c1`, the displacement was -7.2%.
The result for `COc1ccc(NC(=O)c2ccc(CN(c3ccccc3)S(C)(=O)=O)cc2)cc1OC` reads -5.7%; that for `Cc1ccc(/C(O)=C2/C(=O)C(=O)N(CCCCCC(=O)O)C2c2ccc([N+](=O)[O-])cc2)cc1` (stereo unspecified), -21%.
For `CCC(C)c1ccc(NC(=O)Cc2ccccc2OC)cc1` (stereo unspecified), the displacement came to 9.7%.
Then `CC(=O)c1ccc(NC(=O)C2CCCCC2)cc1`, with 1.1%; and `Cc1cccc(C(=O)NCC2CCCO2)c1` (stereo unspecified), with -46.5%; and `COc1cc(NC(=O)c2ccc(C(C)(C)C)cc2)ccc1NC(=O)c1cc2ccccc2o1`, with 0.8%.
Then `COc1ccc(-c2nc(NC(=O)c3ccco3)sc2-c2ccc(OC)cc2)cc1`, with -7.7%; and `CC(C)c1ccc(/C=C/C(=O)N2CCN(c3ccc([N+](=O)[O-])cc3)CC2)cc1`, with -6.7%.
The result for `O=C1c2cccc3c([N+](=O)[O-])ccc(c23)C(=O)N1n1cnnc1` reads 36.8%; that for `Cc1cc(C)nc(NS(=O)(=O)c2ccc(NC(=O)CSc3nccn3C)cc2)n1`, 1.2%.
Take `CCc1c(C)c2ccc(OCC(C)=O)cc2oc1=O`: the displacement was 5.9%.
Then `O=C(Nc1ccccc1F)c1cc2cc([N+](=O)[O-])ccc2oc1=O`, with 12%.
Then `O=C(c1cccc(Br)c1)N1CCN(c2ccccn2)CC1`, with -1.6%.
For `Cc1occc1C(=O)Nc1sc2c(c1C(N)=O)CCC(C(C)(C)C)C2` (stereo unspecified), the displacement came out at 45.9%.
`COc1ccc(/C=N/NC(=O)Cn2cnc3ccccc32)c(OC)c1OC`: the displacement was -0.6%.
Then `Cc1cccc(NCCC(=O)c2cccs2)c1C`, with 4.7%.
With `CCOC(=O)C1=C(C)N(c2ccccc2)C(=S)NC1c1ccc(Br)cc1` (stereo unspecified), the displacement came to 5.1%.
Then `COc1ccc(C2/C(=C(/O)c3ccc(Cl)cc3)C(=O)C(=O)N2c2nccs2)cc1OC` (stereo unspecified), with 10.3%.
On to `O=C(CCCCCN1C(=O)c2cccc3cccc(c23)C1=O)NCCCO`, for which the displacement was determined as 1.4%.
In the case of `O=C(Nc1cccnc1)Nc1ccccn1`, the displacement turned out to be 18.1%.
Then `O=c1[nH]c(NCCO)nc2ncn(Cc3ccccc3)c12`, with 3.9%; and `CCCCOP(=O)(OCCCC)C(Nc1ccccc1)c1ccc(OC)cc1` (stereo unspecified), with 52.1%.
Then `COc1ccc(CC(=O)Nc2ccc(O)c(-c3nc4cc(Cl)ccc4o3)c2)cc1OC`, with 30.5%.
The result for `Cc1ccc2nc(NC(=O)c3cccc(Br)c3)sc2c1` reads 4.6%; that for `CCC(=O)Nc1ccc(N2CCOCC2)cc1`, -3.6%; that for `O=c1oc2cc(OCCO)ccc2c2c1CCC2`, -2.8%.
Regarding `CN1C(=O)NC(=O)/C(=C/c2ccc(OCC(=O)O)cc2)C1=O`, the displacement is -2.8%.
Then `O=C(N=Nc1c(O)n(CN2CCOCC2)c2ccc(Br)cc12)c1cccnc1`, with 2.1%; and `CC12c3ccccc3C(c3ccccc31)C1C(=O)NNC(=O)C12` (stereo unspecified), with 4.3%; and `O=C(Nc1ccc(NC(=O)c2cccc(F)c2)cc1)c1ccc(Br)cc1`, with -8.3%.
For the compound `O=C(Nc1cc(C(F)(F)F)cc(C(F)(F)F)c1)c1cccc([N+](=O)[O-])c1`, the displacement is -6.9%.
Take `COc1cccc(NC(=O)CCc2ccccc2)c1`: the displacement was -12.6%.
The result for `CC1=C(C(=O)OCC(Cl)(Cl)Cl)C(c2ccc(Cl)cc2)NC(=O)N1` (stereo unspecified) reads 2.3%.
The result for `c1ccc(C2=Nc3cccc4cccc(c34)N2)cc1` reads 15.9%; that for `COc1cccc(C(=O)/C=C/c2ccccc2OC)c1`, -7%.
Then `O=C(CN(c1ccccc1)S(=O)(=O)c1ccccc1)NCCSc1ccccn1`, with -2.9%; and `Cc1c(NC(=O)c2nn3c(C(F)(F)F)c4c(nc3c2Cl)-c2ccccc2CC4)c(=O)n(-c2ccccc2)n1C`, with 11.8%.
Take `COc1cccc(C2Sc3ccccc3NC3=C2C(=O)c2ccccc23)c1` (stereo unspecified): the displacement was determined as 10.5%.
The result for `CC(C(=O)N1c2ccccc2-c2c(ssc2=S)C1(C)C)N1C(=O)c2ccccc2C1=O` (stereo unspecified) reads 6.3%; that for `Cc1ccc(C(C)C)c(OCCNC(=O)c2cccc3ccccc23)c1`, -2.9%; that for `CC(=O)c1ccc(N2C(=O)c3ccc4c5c(ccc(c35)C2=O)C(=O)N(c2ccc(C(C)=O)cc2)C4=O)cc1`, 17.8%.
Take `Cc1ccccc1OCC(=O)O/N=C(\N)Cc1cccs1`: the displacement was determined as 5.4%.
The result for `CCOC(=O)Cc1nnc(Nc2cc(C)ccc2C)c2ccccc12` reads 1.9%; that for `COC(=O)c1sc(NC(=O)c2c(-c3c(Cl)cccc3Cl)noc2C)c(C#N)c1C`, 3.1%.
For `O=c1c2c3c(sc2nc(SCc2ccccc2Cl)n1-c1ccccc1)CCC3`, the displacement came out at 5.4%.
Then `COc1cc(C=Nc2ccc(Nc3ccccc3)cc2)cc(Br)c1O`, with 18.4%; and `O=C(/C=C/c1ccc(-c2cccc(C(F)(F)F)c2)o1)c1ccc(F)cc1`, with -28.8%.
With `Cc1ccc(-c2cc(C(=O)Nc3nccs3)c3ccccc3n2)o1`, the displacement is 9.4%.
The result for `Cc1ccc(C(=O)N/N=C/c2ccc3c(c2)OCO3)cc1` reads 9.5%; that for `N/C(=N\OC(=O)c1ccc([N+](=O)[O-])cc1)c1ccccc1Cl`, -5.9%; that for `COc1cc(NS(=O)(=O)c2ccc(NC(=O)c3ccc4ccccc4c3)cc2)nc(OC)n1`, 9.2%.
The result for `CCOC(=O)c1ccc(-n2c(C)cc(/C=C3\NC(=S)NC3=O)c2C)cc1` reads 13.6%.
The result for `O=C(NC(=S)Nc1ccc2oc(-c3ccc(F)cc3)nc2c1)c1ccc(Cl)cc1` reads 19.1%; that for `CS(=O)(=O)N1CCN(S(C)(=O)=O)C(OCc2ccccc2)C1OCc1ccccc1` (stereo unspecified), 4.8%; that for `Cc1ccc2oc(-c3cc(NC(=O)c4cccnc4)ccc3O)nc2c1`, 0.9%.
As to `FC(F)(F)c1cccc(-c2ccc(C(=S)N3CCOCC3)o2)c1`, the displacement stood at 12.5%.
Then `COc1cccc(/C=C2\SC(=Nc3cccc(Cl)c3C)NC2=O)c1`, with -15.1%; and `COC(=O)c1ccccc1NC(=O)CN(c1ccc(Cl)cc1)S(C)(=O)=O`, with -6.4%; and `Cc1ccc(NC(=O)CSc2nsc(SCC(=O)Nc3ccc(C)cc3)c2C#N)cc1`, with 38.6%.
The result for `O=C(N(c1cccc2ccccc12)C1C=CS(=O)(=O)C1)C(F)(F)F` (stereo unspecified) reads 66%.
The result for `CCN(CC)CCN1C(=O)C(O)=C(C(=O)/C=C/c2ccccc2)C1c1ccccc1F` (stereo unspecified) reads -8.5%; that for `Cc1ccc(C2CC(C(F)(F)F)n3nc(C(=O)Nc4ccc(OC(F)(F)F)cc4)cc3N2)cc1` (stereo unspecified), -11%.
For the compound `CCOc1ccccc1NC(=O)CN(c1ccc(C)cc1)S(C)(=O)=O`, the displacement is 1.8%.
The result for `COc1ccccc1N=Nc1c(O)[nH]c(=O)[nH]c1=O` reads -1%; that for `CCOc1cc(/C=C2/SC(=S)N(C)C2=O)ccc1OCCOc1ccc(C)c(C)c1`, 9.3%.
The result for `O=C(COc1ccc(Cl)cc1)Nc1ncc(Cc2cccc3ccccc23)s1` reads 4%.
The result for `CC(=O)Nc1ccc(Nc2nc(-c3ccc(Cl)c(Cl)c3)cs2)cc1` reads 12.6%; that for `COC(=O)c1cc(C(=O)NCc2ccccc2OC)cc([N+](=O)[O-])c1`, 8.2%; that for `COc1ccccc1/C=C1\SC(=S)N(C(CCSC)C(=O)O)C1=O` (stereo unspecified), 9.7%.
Regarding `COc1ccc(C2Nc3ccccc3C(=O)N2Cc2ccccc2)cc1CN1C(=O)c2ccccc2C1=O` (stereo unspecified), the displacement came to 0.9%.
Then `O=C(Nc1ccc2c(c1)OCCO2)c1ccccc1Br`, with 5.5%; and `COc1ccc(/C=C(\NC(=O)c2ccccc2)C(=O)NCCc2c[nH]c3ccccc23)cc1`, with -4.6%; and `O=C(Nc1ccccc1[N+](=O)[O-])c1cccc(N2C(=O)CCC2=O)c1`, with 11.7%.
Regarding `COc1ccc(CNc2cccc(C)c2)cc1`, the displacement was found to be 12.6%.
The result for `C=CCOc1ccc2c(C)c(CC)c(=O)oc2c1` reads 16.3%.
Then `CC(=O)c1cccc(NC(=O)Nc2cccc3ccccc23)c1`, with 13.2%; and `COc1ccc(N2C(=O)/C(=C/c3cc(Br)cc(OC)c3O)SC2=S)cc1`, with -38.7%.
The result for `Cc1ccccc1C(=O)NNC(=O)C(=O)NCCO` reads -10%; that for `O=C(CN(c1ccccc1)S(=O)(=O)c1ccccc1[N+](=O)[O-])Nc1cc(Cl)cc(Cl)c1`, -9.8%; that for `Cc1ccc(SC(CC(=O)O)c2ccccc2)cc1` (stereo unspecified), -1.4%.
Take `O=C(Nc1ccccc1I)c1ccccc1C(F)(F)F`: the displacement worked out at 2.9%.
Then `CS(=O)(=O)N(CC(=O)Nc1ccccc1Cl)c1cccc(C(F)(F)F)c1`, with 10.2%; and `O=C1NC(=O)C(=Cc2ccc(O)c(Cl)c2)C(=O)N1`, with 4.6%.
The result for `CCOc1cc(OCC)cc(C(=O)Nc2ccc(-c3nc4ccc(C)cc4o3)cc2)c1` reads -16.6%.
Then `CN(C)c1ccc(/C=N/NC(=O)NC23CC4CC(CC(C4)C2)C3)cc1`, with 3.6%; and `CCOC(=O)c1sc(NC(=O)c2ccc(S(=O)(=O)N3CCCC3)cc2)c(C(=O)OCC)c1C`, with 0.6%.
For `Cc1cnn(-c2nc(-c3ccccc3)cc(-c3ccc(F)cc3)n2)c1`, the displacement was -5.8%.
For `COc1ccccc1C=C1C(=O)N(C)C(=O)N(C)C1=O`, the displacement is -4.2%.
For the compound `C(=N\Nc1nnc(-c2ccccc2)c(-c2ccccc2)n1)/c1cccnc1`, the displacement worked out at 1.7%.
Then `CCOCCOC(=O)C1=C(C)NC2=C(C(=O)CCC2)C1c1coc2ccc(C)cc2c1=O` (stereo unspecified), with -3%; and `COc1ccc(C2CC(C(F)(F)F)n3nc(C(=O)Nc4ccccc4SC)c(Cl)c3N2)cc1` (stereo unspecified), with 0.5%; and `COC(=O)c1ccc(NC(=O)COc2ccc(C)cc2C)cc1`, with 11.2%.
Take `COc1cc(/C=C2/SC(=S)N(C)C2=O)ccc1OC(=O)c1ccccc1Cl`: the displacement was 11.8%.
Turning to `CCN(C(=O)c1cc(OC)c(OC)cc1[N+](=O)[O-])c1ccccc1`, the displacement came to 16.6%.
